Measured values: PubChem BioAssay AID485294 (National Center for Advancing Translational Sciences (NCATS), 2010)
Screen size: about 370,000 compounds; about 150 (0.041%) were called active. The inconclusive results got no clear call from the source; some entries with a clear call stand among them for comparison. Calls follow the shape of the dose curve; as a rule, active = well fitted inhibition curve with a large enough effect; inconclusive = small, poorly fitted or top-dose-only effect; inactive = flat fitted curve, though single readings scatter. No potency is given beside an inconclusive call; the fits are too rough.
Also: nearly all actives have a fitted effect of over 25% in size.
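For activity change, negative = inhibition in this document: 0% = no-compound wells and -100% = no-enzyme wells.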
Potency is read from the fitted curve at half-maximal effect; tags tell the direction and shape of the fitted curve.

What follows are molecules tested against Beta-lactamase (Escherichia coli (strain K12)) (UniProt P00811) (assay: qHTS Inhibitors of AmpC Beta-Lactamase (assay with detergent)). Conditions: AmpC hydrolysis of nitrocefin, absorbance 480 nm, 0.01% Triton; activity change, negative = inhibition: at 114 µM (top of the series).
Chain of UniProt P00811 (P00811 whole entry, looked up): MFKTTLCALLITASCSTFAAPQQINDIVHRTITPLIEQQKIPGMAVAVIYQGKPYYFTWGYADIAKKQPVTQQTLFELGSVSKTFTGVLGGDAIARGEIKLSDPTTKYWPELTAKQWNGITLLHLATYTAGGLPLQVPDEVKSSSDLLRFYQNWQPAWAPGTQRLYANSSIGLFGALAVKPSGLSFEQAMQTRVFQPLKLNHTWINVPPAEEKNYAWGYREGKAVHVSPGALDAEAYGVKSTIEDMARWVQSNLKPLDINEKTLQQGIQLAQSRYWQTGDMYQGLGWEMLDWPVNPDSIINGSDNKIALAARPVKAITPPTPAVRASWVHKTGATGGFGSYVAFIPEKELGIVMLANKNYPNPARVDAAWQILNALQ
Outline: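 20 mM phosphate pH 7.0 + 0.01% (detergent screen) or 0.0001% Triton X-100; 5.3 nM AmpC reagent; cpd preinc 15 min RT; nitrocefin (800 uM stock) to start; A480 q20 s × 4 min; Activity was normalised to no-enzyme and no-compound control wells.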
In the case of `C=CCNC(=O)CSc1nc2sc(C)c(C)c2c(=O)[nH]1`, the Potency is reported as inconclusive [inhibitor, full curve, poor fit].
For `COc1ccc(N2CCN(C(=S)Nc3cc(C)ccc3C)CC2)cc1`, the “activity change, negative = inhibition” value was inactive: -3.89%.
In the case of `NS(=O)(=O)c1ccc(CCNC(=O)c2cc(-c3ccc(Br)cc3)nc3ccccc23)cc1`, the Potency is reported as inconclusive [inhibitor, single point].
With `Cc1cc(C)cc(NC(=O)N2CCC(C(=O)c3ccc(F)cc3)CC2)c1` the Potency was inconclusive [inhibitor, partial curve, poor fit].
With `Cc1ccc2oc(-c3cc(NC(=O)CC(C)C)ccc3Cl)nc2c1` the Potency was inconclusive [inhibitor, partial curve, poor fit].
`CCOc1ccc(CCNC(=O)COC(=O)COc2cc(C)cc(C)c2)cc1OCC` was tested, and the Potency was inconclusive [inhibitor, full curve, poor fit].
`CCOc1ccc2noc3c2c1C(=O)c1ccccc1-3` was tested, and the “activity change, negative = inhibition” value was inactive: -0.744%.
With `c1csc(-c2nc(NCC3CCCO3)c3ccccc3n2)c1` (centres undefined) the “activity change, negative = inhibition” value was inactive: 0.402%.
`COc1ccccc1NC(=O)Nc1nc(CC(=O)Nc2cc(F)ccc2F)cs1` was tested, and the Potency was inconclusive [inhibitor, full curve, poor fit].
In the case of `O=[N+]([O-])c1ccc(Oc2ccc(/C=N/O)cc2)nc1`, the “activity change, negative = inhibition” value is reported as inactive: -11.4%.
With `O=C(COC(=O)c1cccc(S(=O)(=O)N2CCc3ccccc3C2)c1)NCc1ccco1` the Potency was inconclusive [inhibitor, full curve, poor fit].
With `CCOP(=O)(c1c(F)c(F)c(F)c(F)c1F)C(O)c1ccccc1` (centres undefined) the Potency was inconclusive [inhibitor, single point].
`Cc1ccc2nc(NC(=O)CSc3ncnc4c3oc3ccccc34)sc2c1` was tested, and the Potency was inconclusive [inhibitor, partial curve].
For `COc1ccc2[nH]c(=O)c(CN(C(=O)c3ccccn3)C3CCCCC3)cc2c1`, the Potency was inconclusive [inhibitor, full curve].
In the case of `CC(C)CNS(=O)(=O)c1ccc(OCC(=O)Nc2ccc3c(c2)OCO3)c(Cl)c1`, the Potency is reported as inconclusive [inhibitor, full curve, poor fit].
For `CCOC(=O)[C@H]1[C@H]2COc3ccc(Cl)cc3[C@@H]2N2C(=O)CN(Cc3ccccc3)C(=O)[C@@]12C`, the “activity change, negative = inhibition” value was inactive: 5.04%.
For `O=C(OCc1ccccc1)c1cccnc1Cl`, the “activity change, negative = inhibition” value was inactive: -5.12%.
For `O=C(Nc1ccccn1)C1CCN(C(=O)Nc2ccccc2)CC1`, the Potency was inconclusive [inhibitor, full curve, poor fit].
`COc1ccccc1N(CC(=O)N/N=C/c1c(O)ccc2ccccc12)S(C)(=O)=O` was tested, and the “activity change, negative = inhibition” value was inactive: -2.26%.
For `CCOc1ccc(-c2nc(N)ncc2Oc2ccc(OC)cc2)c(O)c1`, the “activity change, negative = inhibition” value was inactive: -10.4%.
With `CC12CCC(C(=O)Nc3nccs3)(OC1=O)C2(C)C` (centres undefined) the Potency was inconclusive [inhibitor, full curve, poor fit].
In the case of `Cc1c(Cl)cccc1NC(=O)Nn1cnnc1`, the Potency is reported as inconclusive [inhibitor, full curve, poor fit].
With `Cc1onc(-c2c(F)cccc2Cl)c1C(=O)OCC(=O)NC1CC1` the Potency was inconclusive [inhibitor, partial curve, poor fit].
With `CCOc1ccc(NC(=O)c2cc3ccccc3cc2O)cc1` the Potency was inconclusive [inhibitor, single point].
In the case of `COc1ccc(-c2oc(/N=C/N3CCOCC3)c(C#N)c2-c2ccc(OC)cc2)cc1`, the Potency is reported as inconclusive [inhibitor, full curve, poor fit].
With `CCOc1ccc(NC(=O)C(=O)N/N=C/c2cccnc2)cc1` the Potency was inconclusive [inhibitor, partial curve].
With `CCC(C)(c1nnnn1-c1c(C)cccc1C)N(N=O)c1cccc(C(F)(F)F)c1` (centres undefined) the “activity change, negative = inhibition” value was inactive: -6.51%.
`CCOc1ccc(S(=O)(=O)N2CCCC(C(=O)NCc3ccccn3)C2)cc1Cl` (centres undefined) was tested, and the Potency was inconclusive [inhibitor, partial curve].
`Cc1cc(=O)[nH]c(Cc2ccc(OC(C)C)cc2)n1` was tested, and the Potency was inconclusive [inhibitor, partial curve].
In the case of `O=C1CCC([N+](=O)[O-])C(c2cc(Br)ccc2F)N1` (centres undefined), the Potency is reported as inconclusive [inhibitor, full curve, poor fit].
For `COc1ccc(C(=O)Nc2ccnn2C2CCN(C(=O)c3cnsn3)CC2)cc1`, the Potency was inconclusive [inhibitor, full curve, poor fit].
In the case of `CC(=O)C1=C(O)C(=O)N(Cc2cccnc2)C1c1ccc(Cl)cc1` (centres undefined), the Potency is reported as inconclusive [inhibitor, single point].
With `O=C(CNC(=O)C12CC3CC(CC(C3)C1)C2)NC1=NCCS1` the Potency was inconclusive [inhibitor, full curve, poor fit].
In the case of `O=C(CSc1nc2ccc(Cl)cc2[nH]1)Nc1ccc2[nH]c(=O)[nH]c2c1`, the Potency is reported as inconclusive [inhibitor, partial curve, poor fit].
`COCCN=c1scc(-c2cc(OC)c(OC)c(OC)c2)n1/N=C/c1c(C)[nH]c2ccccc12` was tested, and the “activity change, negative = inhibition” value was inactive: -9.84%.
`COc1ccccc1NS(=O)(=O)c1cc(NC(=O)Cn2cnc3c2c(=O)n(C)c(=O)n3C)ccc1C` was tested, and the Potency was inconclusive [inhibitor, partial curve].
`C/C(=N\Nc1ccc(C(=O)c2c(C)cc3ccccn23)cc1[N+](=O)[O-])c1ccc(O)cc1` was tested, and the “activity change, negative = inhibition” value was inactive: -2.31%.
`COCCNC(=O)C(c1cccc(OC)c1)N(C(=O)Cn1nnc2ccccc21)c1cccnc1` (centres undefined) was tested, and the Potency was inconclusive [inhibitor, full curve, poor fit].
In the case of `COc1ccc(C(=O)COc2nc(C)cc(C)c2C#N)cc1`, the Potency is reported as inconclusive [inhibitor, partial curve, poor fit].
For `C=CCNC(=O)/C(=C\c1ccc2c(c1)OCO2)NC(=O)c1ccc(Br)cc1`, the Potency was inconclusive [inhibitor, partial curve, poor fit].
For `Cc1cc(C)c(C(=O)CSc2nnc(C)s2)c(C)c1`, the “activity change, negative = inhibition” value was inactive: 4.98%.
`COc1ccc(S(=O)(=O)NC2CC(=O)N(c3ccc(C)c(C)c3)C2)cc1C` (centres undefined) was tested, and the Potency was inconclusive [inhibitor, single point].
With `CN(C)CCCN(C(=O)c1ccc(S(=O)(=O)N(C)C2CCCCC2)cc1)c1nc2ccc(Br)cc2s1` the “activity change, negative = inhibition” value was inactive: 2.07%.
In the case of `COc1ccc(C(=O)C2CCCN(Cc3cccc4c3OCO4)C2)cc1OC` (centres undefined), the “activity change, negative = inhibition” value is reported as inactive: 3.02%.
`Cc1ccccc1Nc1c(C)c(C)nc2ncnn12` was tested, and the Potency was inconclusive [inhibitor, partial curve, poor fit].
In the case of `Cc1ccc(N2CC(C(=O)N3CCCCC3)CC2=O)cc1C` (centres undefined), the Potency is reported as inconclusive [inhibitor, partial curve, poor fit].
`CCOc1ccccc1-c1nc(-c2ccc(NC(=O)c3ccc(Br)o3)cc2)no1` was tested, and the Potency was inconclusive [inhibitor, single point].
With `O=c1[nH]nc2c3ccccc3cnn12` the “activity change, negative = inhibition” value was inactive: -15.1%.
`Cc1nnc(NC(=O)CCC(=O)N2CCC(C)CC2)s1` was tested, and the Potency was inconclusive [inhibitor, partial curve, poor fit].
In the case of `O=C(Nc1cccc(-c2nc3ccccc3o2)c1)c1ccc(N2C(=O)C3C4C=CC(C4)C3C2=O)cc1` (centres undefined), the Potency is reported as inconclusive [inhibitor, full curve, poor fit].
`COc1ccc(/C=C/C(=O)Oc2ccc(C)c(C)c2)cc1OC` was tested, and the “activity change, negative = inhibition” value was inactive: -10%.
With `COC1(OC)C(=N/O)/C(=N\O)CCC1O` (centres undefined) the Potency was inconclusive [inhibitor, full curve].
For `CN1C(=O)[C@@H]2[C@H](C1=O)[C@@H]1C(=O)Nc3ccccc3C(=O)N1[C@@H]2c1ccc(F)cc1`, the Potency was inconclusive [inhibitor, full curve, poor fit].
With `O=C(CCN1c2ccccc2Sc2ccccc21)Oc1ccccc1` the Potency was inconclusive [inhibitor, single point].
`COc1ccc(C(C(O)C(=O)c2c[nH]c3ccccc23)N2CCN(c3ccc(OC)cc3)CC2)cc1` (centres undefined) was tested, and the “activity change, negative = inhibition” value was inactive: -1.45%.
For `Cc1c(NC(=O)C2CC(c3c(F)cccc3Cl)=NO2)c(=O)n(-c2ccccc2)n1C` (centres undefined), the Potency was inconclusive [inhibitor, single point].
`c1ccc(Cn2nnnc2C(c2ccccc2)N2CCN(c3nc4ccccc4s3)CC2)cc1` (centres undefined) was tested, and the Potency was inconclusive [inhibitor, partial curve, poor fit].
In the case of `CC1(c2ccccc2)NC(=O)N(CC(=O)Nc2cccc(/C=C/c3ccccn3)c2)C1=O` (centres undefined), the Potency is reported as inconclusive [inhibitor, partial curve].
`O=C(/C=C/c1ccco1)Nc1sc2c(c1C(=O)O)CCC2` was tested, and the Potency was inconclusive [inhibitor, single point].
In the case of `C=CCn1c(SCc2nc3sc4c(c3c(=O)[nH]2)CCCC4)nc2ccccc2c1=O`, the Potency is reported as inconclusive [inhibitor, full curve, poor fit].
With `CCOC(=O)N1CCN(C(=O)CS(=O)(=O)Cc2nc(-c3ccccc3C)oc2C)CC1` the Potency was inconclusive [inhibitor, full curve].
In the case of `CCOC(=O)C1CCCN(c2cc(C)nc3cc(-c4ccc(Cl)cc4)nn23)C1` (centres undefined), the Potency is reported as inconclusive [inhibitor, partial curve, poor fit].
With `c1cc(-c2cccs2)nc(-c2cccs2)c1` the Potency was inconclusive [inhibitor, full curve, poor fit].
With `CC1CCN(C2=NN3C(=N)/C(=C\c4ccc(OC(=O)c5ccco5)cc4)C(=O)N=C3S2)CC1` the “activity change, negative = inhibition” value was inactive: -15.6%.
